The structures appear in SMILES notation. The whole screen tested about 310,000 compounds, of which about 14,000 (4.5%) showed an effect of 50% or more. The effect is printed as a negative number. The list shows a part of the results.

The results in this text go back to publication PMC4336329 (PLoS ONE, 2015).
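Also: peak tail current of the secondary pulse compared with the same well before compound.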

For the assay, the target named is human ether-à-go-go-related gene (hERG) potassium channel (human, UniProt Q12809). Kind of assay: primary screen, population patch clamp on CHO cells stably expressing hERG.
Sequence of human ether-à-go-go-related gene (hERG) potassium channel (Q12809 whole entry, looked up): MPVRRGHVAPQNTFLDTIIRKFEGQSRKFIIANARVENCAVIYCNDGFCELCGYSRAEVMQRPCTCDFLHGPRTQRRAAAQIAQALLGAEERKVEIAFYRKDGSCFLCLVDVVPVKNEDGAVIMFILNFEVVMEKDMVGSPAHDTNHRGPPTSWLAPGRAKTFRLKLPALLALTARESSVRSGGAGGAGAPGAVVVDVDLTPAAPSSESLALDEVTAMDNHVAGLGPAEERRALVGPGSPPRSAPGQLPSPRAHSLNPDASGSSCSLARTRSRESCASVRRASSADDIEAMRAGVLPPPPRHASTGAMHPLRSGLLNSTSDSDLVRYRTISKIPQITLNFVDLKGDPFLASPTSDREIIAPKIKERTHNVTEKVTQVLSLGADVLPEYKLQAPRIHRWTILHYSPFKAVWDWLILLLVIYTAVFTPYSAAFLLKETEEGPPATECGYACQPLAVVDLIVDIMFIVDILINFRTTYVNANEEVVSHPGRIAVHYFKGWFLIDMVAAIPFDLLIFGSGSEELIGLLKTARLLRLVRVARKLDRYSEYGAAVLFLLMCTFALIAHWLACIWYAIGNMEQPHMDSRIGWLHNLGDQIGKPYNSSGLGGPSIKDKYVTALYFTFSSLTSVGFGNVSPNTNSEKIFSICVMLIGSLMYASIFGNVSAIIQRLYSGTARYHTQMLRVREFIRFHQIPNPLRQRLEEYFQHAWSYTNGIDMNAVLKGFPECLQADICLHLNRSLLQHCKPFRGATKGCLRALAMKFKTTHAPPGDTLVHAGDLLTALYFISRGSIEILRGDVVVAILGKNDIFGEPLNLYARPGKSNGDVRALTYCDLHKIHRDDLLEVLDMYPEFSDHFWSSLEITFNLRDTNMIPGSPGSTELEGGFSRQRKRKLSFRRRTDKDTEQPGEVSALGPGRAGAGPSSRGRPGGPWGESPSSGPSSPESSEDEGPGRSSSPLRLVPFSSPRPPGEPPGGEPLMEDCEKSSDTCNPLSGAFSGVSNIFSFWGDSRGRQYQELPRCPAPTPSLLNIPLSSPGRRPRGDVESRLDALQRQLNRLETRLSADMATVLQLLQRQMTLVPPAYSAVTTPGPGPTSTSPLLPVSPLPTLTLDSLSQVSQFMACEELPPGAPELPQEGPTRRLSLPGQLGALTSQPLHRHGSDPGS
Consider `CN(C)C(=O)CSc1n[nH]c(=O)[nH]c1=O`, for which the “hERG current change (%, negative = inhibition) at 10uM” value was -8.5%. Next, `Cc1sc2ncnc(N3CCC(C(=O)Nc4nc(-c5ccc(F)cc5)cs4)CC3)c2c1C`: 9.08%; `CCCCN(C(=O)NC(=O)Nc1ccc(C)cn1)S(C)(=O)=O`: 11%. On to `Cc1ccc(SCCC(=O)OCC(=O)NCC2CCCCC2)cc1`, for which the “hERG current change (%, negative = inhibition) at 10uM” value is 1.15%.

In the case of `Cc1ccc(C)c(S(=O)(=O)Nc2ccc(O)cc2)c1`, the “hERG current change (%, negative = inhibition) at 10uM” value stood at 4.75%.

With `Cc1ccccc1CN1[C@@H](C(C)C)COCCS1(=O)=O`, the “hERG current change (%, negative = inhibition) at 10uM” value is recorded as -0.457%.

For the compound `CC(/C=N/NC(=O)CSc1nc2ccccc2n1C)=C\c1ccco1`, the “hERG current change (%, negative = inhibition) at 10uM” value is listed as -19.6%. The result for `O=C(CN(CCN1CCOCC1)C(=O)Cn1nnc(-c2ccc(F)cc2)n1)NC1CCCCC1` reads -4.75%; that for `CCOC(=O)c1cc(NC(=O)c2cccnc2)ccn1`, -1.85%. Next, `COc1ccccc1CCC(=O)OCC(=O)c1c(N)n(CC(C)C)c(=O)n(C)c1=O`: -70.3%. Next, `Cl.c1ccc(CNc2nc(NCc3ccccc3)c3ccccc3n2)cc1`: 2.65%; `CC1(C)CC(c2csc(N)n2)CCO1` (stereo not shown): 2.95%; `CCn1c2ccccc2c2cc(NC(=O)CNCC3CCCO3)ccc21.O=C(O)C(=O)O` (stereo not shown): -28.4%.

With `CC(C)CC(COCc1ccc(Cl)cc1)N1CCN(C(=O)c2ccc(C(F)(F)F)cc2)CCC1=O` (stereo not shown), the “hERG current change (%, negative = inhibition) at 10uM” value is given as -44.5%.

Turning to `O=C(c1cccn2c(=O)c3cc(Cl)ccc3nc12)N1CCN(Cc2ccc3c(c2)OCO3)CC1`, the “hERG current change (%, negative = inhibition) at 10uM” value is listed as -75.2%. For `Cc1cccc(CN2CCN(CC(=O)NCCCN3CCN(c4ccc(F)cc4)CC3)C2=O)c1`, the “hERG current change (%, negative = inhibition) at 10uM” value is recorded as -69.8%. Turning to `Cc1nc2sccn2c(=O)c1CCN1CCC(=C(c2ccccc2)c2ccc(F)cc2)CC1`, the “hERG current change (%, negative = inhibition) at 10uM” value is -78%. With `N#CC(C(=O)NCc1ccccc1)c1nc2ccccc2nc1N1CCCC1` (stereo not shown), the “hERG current change (%, negative = inhibition) at 10uM” value was 5.08%. Next, `O=C(N1CCCCC1)N1CCN(C(=O)N(c2ccccc2)c2ccccc2)CC1`: -6.59%; `COc1ccc(/C=C/C(=O)NCc2ccc3c(c2)OCO3)cc1OC`: 8.54%; `O=C(N/N=C\c1ccncc1)c1ccccc1O`: -7.23%. The result for `COc1cc2c(c(OC)c1OC)-c1ccc(OC)c(=O)cc1[C@@H](N(C)CC#CCO)CC2` reads 8.03%; that for `Cc1ccc(S(=O)(=O)N(CC(=O)N2CCCCCC2)c2ccccc2)cc1`, -1.96%. Next, `CC1CC(C)CN(C(=O)COC(=O)c2cn(C)c3ccccc23)C1` (stereo not shown): -24.3%; `Cn1c(=O)[nH]c2cc(Cl)cnc21`: 7.08%; `Cc1nc2ccccc2c(=O)n1/N=C/c1ccco1`: -7.16%. Regarding `CCc1ccc(S(=O)(=O)N(C(=O)c2ccncc2)c2ccc(OC(=O)c3ccncc3)cc2)cc1`, the “hERG current change (%, negative = inhibition) at 10uM” value is reported as -10.1%. The result for `Cc1ccc2cc(CN(CCc3ccccc3)C(=S)NCCCN(C)C)c(=O)[nH]c2c1` reads -72%; that for `COc1ccccc1/C=C/C(=O)NC(=S)NC(C)C`, -17.6%. For the compound `COc1ccc(/C=N/Nc2ccccc2C(=O)O)cc1`, the “hERG current change (%, negative = inhibition) at 10uM” value was determined as 21.5%. Take `O=C(CSc1nc(C(F)(F)F)cc(=O)[nH]1)NCc1ccc2c(c1)OCO2`: the “hERG current change (%, negative = inhibition) at 10uM” value is 13.2%.

For `COCCNC(=O)CN1C(=O)CC(C)(C)S(=O)(=O)c2ccccc21`, the “hERG current change (%, negative = inhibition) at 10uM” value turned out to be 17.3%. Next, `O=C(O)/C(=C/c1cccnc1)NC(=O)c1ccccc1`: 20.3%; `Cc1oc(-c2ccccc2F)nc1CS(=O)(=O)CC(=O)NCc1ccco1`: -27.3%. Next, `C#CCOCCOCCOCCNc1nc(N2CCN(C(=O)[C@H](CCCCN)n3cc([C@@H](N)CO)nn3)CC2)nc(N2CCN(C(=O)[C@H](Cc3cc4ccccc4[nH]3)n3cc([C@@H](N)CO)nn3)CC2)n1.Cl`: 13.8%; `CCCc1cc(=O)oc2cc(C)cc(OCC(=O)NC(Cc3ccc(Cl)cc3)C(=O)O)c12` (stereo not shown): 9.45%. Next, `Cc1[nH][nH]c(=O)c1C(c1ccc(-c2ccc(Cl)c(Cl)c2)o1)c1c(C)[nH][nH]c1=O`: 18%; `Cc1c(C(=O)C(=O)N2CCC3(CC2)OCCO3)c2ccccc2n1C`: 29.2%; `Cc1ccc(C)c(N2CCN(C3CCCCC3NS(=O)(=O)c3ccccc3)CC2)c1` (stereo not shown): 9.4%. Regarding `O=C(Nc1ccc(Cl)cn1)c1cnn2cccnc12`, the “hERG current change (%, negative = inhibition) at 10uM” value turned out to be 5.81%. Next, `CC(=O)C1=C(O)C(=O)N(CCc2ccccc2)C1c1ccccc1[N+](=O)[O-]` (stereo not shown): 20%; `O=C(NCCCNC(=O)c1ccc(Cl)cc1Cl)c1ccco1`: -2.33%; `Cc1c(C(=O)c2ccc(Cl)cc2[N+](=O)[O-])c2ccccn2c1CCC#N`: -14.9%. Next, `NC(=O)CC(NC(=O)Cc1ccc(Br)cc1)c1ccc(N2CCc3ccccc3C2)c([N+](=O)[O-])c1` (stereo not shown): -2.08%; `Cc1occc1C(=O)Nc1c(F)cc(F)cc1Br`: -0.341%. Next, `O=C(CN1CCOCC1)Nc1ccc(-c2nc3ccccc3[nH]2)cc1`: -3.15%. As to `O=c1c2ccccc2c(C=Nc2ccc(O)cc2)c(O)n1Cc1ccccc1`, the “hERG current change (%, negative = inhibition) at 10uM” value stood at 4.15%. Next, `NC(=O)c1c(NC(=O)c2ccccc2Cl)sc2c1CCC2`: 15.1%.

With `CC(C)(C)c1cnnn1-c1ccc(C=O)cc1`, the “hERG current change (%, negative = inhibition) at 10uM” value is on record as 9.39%. Next, `C=CCc1cccc(/C=N/NC(=O)CNc2ccccc2)c1O`: -2.16%; `CCCOC(=O)CSc1nnc(-c2ccccc2Cl)o1`: -27.1%; `O=C(NCC1CC1)c1ccc2c3n(nc2c1)-c1ccc(Cl)cc1CO3`: -48%. The result for `CCC(=O)NC(Nc1sc2c(c1C(=O)OC)CCN(C)C2)(C(F)(F)F)C(F)(F)F` reads -16.5%; that for `CCOc1ccccc1OCCCC(=O)Nc1sccc1C(N)=O`, -5.75%; that for `O=S(Cc1ccc(Br)cc1)Cc1nnc(SCc2c(F)cccc2Cl)n1-c1ccccc1` (stereo not shown), -23.1%.
